From PubChem BioAssay AID361 (National Center for Advancing Translational Sciences (NCATS), 2006)
Among all 51,000 compounds or so, about 600 (1.2%) were called active. This list was built around the results that the source calls inconclusive (neither active nor inactive); the mix of calls is not that of the screen. No stated cut-off is given here; in the data, active means potency below about 11 µM; inconclusive means mostly about 12 µM to 25 µM; inactive means weaker than that;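 the screen sought inhibitors and activators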. No potency is given beside an inconclusive call; the fits are too rough.

tested on: pyruvate kinase (Bacillus stearothermophilus); assay: Pyruvate Kinase; conditions: purified pyruvate kinase, luminescence ATP production; ribose 5-phosphate activator present at AC10
Method in brief: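 Partially purified B. stearothermophilus pyruvate kinase (10 nM final) with 2 mM PEP, 0.1 mM ADP and 0.7 nM ribose 5 phosphate in 50 mM imidazole pH 7.2, KCl, MgCl2; 2 h at room temperature, ATP formed read by luciferase luminescence.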
Potency means the concentration at half of the fitted maximal effect.

Structure (SMILES) | Potency
COc1ccc(N2C(=O)CSC23C(=O)N2CCCc4cccc3c42)cc1 (stereo not drawn) | inconclusive [increasing]
O=C(NCc1ccc2c(c1)OCO2)c1cc(S(=O)(=O)N2CCCCC2)ccc1F | inactive: > 57 µM
COc1c(Cl)ccc(Cl)c1C(=O)NC(=O)N1CCOCC1 | inconclusive [increasing]
COc1ccc(-n2ncc3c(N4CCCc5ccccc54)ncnc32)cc1 | inconclusive [decreasing]
NC(=O)c1cc(Br)cc2c3c([nH]c12)CCCC3 | active: 0.687 µM
Cc1nc2nc(CSc3nc4ccccc4s3)cc(=O)n2[nH]1 | inconclusive [increasing]
Cc1cccc(-c2nnc3sc(-c4ccccc4C)nn23)c1 | inconclusive [decreasing]
Cc1nc(N2CCN(C(=O)c3ccc(Cl)cc3)CC2)c(C#N)c2c1COC(C)(C)C2 | inconclusive [increasing]
OCCN1CCN(C(=S)c2ccc(Cl)cc2)CC1 | inconclusive [increasing]
Clc1ccc(-c2cn3c(n2)CCC3)cc1 | inconclusive [decreasing]
N=C1C(c2ccc(Br)cc2)=C(O)C2CCc3ccccc3N12 (stereo not drawn) | active: 3 µM
COc1ccccc1-n1c(=O)c2c3c(sc2n2c(SC)nnc12)CCC3 | inconclusive [decreasing]
CCc1ccc(OC(=O)c2ccn(CC)n2)cc1 | inconclusive [decreasing]
Cc1nc2c3c(-c4ccccc4)nc(N4CCOCC4)nc3nn2c(C)c1CCC(=O)O | inactive: > 57 µM
CC(=O)N1CCN(C2c3cccc4cccc(c34)C2NS(=O)(=O)c2ccccc2)CC1 (stereo not drawn) | inconclusive [increasing]
Cc1cc(C)nc(N2CCCC(C(=O)NC(C)CCc3ccco3)C2)n1 (stereo not drawn) | inactive: > 57 µM
Cc1ccc(NC(=O)c2ccccc2O)cc1 | active: 6.35 µM
Clc1cccc(Cl)c1Cn1cnc2c(N3CCCCCC3)ncnc21 | inconclusive [increasing]
Cn1c(=O)c2nc(-c3ccccc3)oc2c2ccccc21 | active: 0.432 µM
CCOc1ccc(C2C=C(c3ccccc3)Nc3ncnn32)cc1 (stereo not drawn) | inconclusive [decreasing]
Cc1cc2nc(-c3cccnc3SCC(=O)NCc3ccco3)[nH]c2cc1C | active: 3.87 µM
CCN1C(=O)/C(=C2\SC(N3CCCCC3)=NC2=O)c2ccccc21 | inconclusive [decreasing]
N#Cc1nc(-c2ccc(OCc3ccccc3)cc2)oc1N1CCC(C(N)=O)CC1 | active: 4.87 µM
Cn1c(SCc2c(Cl)cccc2Cl)nnc1-c1cccs1 | inconclusive [increasing]
O=C(NC1CCCCC1)N(CCN1CCCC1)Cc1cc2cc3c(cc2[nH]c1=O)OCCO3 | inactive: > 57 µM
CCN1CCN(C(=O)C2=C(C(=O)O)CCCC2)CC1 | inconclusive [decreasing]
Cc1ccc(Nc2nc(CSc3nnnn3C)cs2)cc1 | inconclusive [decreasing]

Structure (SMILES) | Potency
Cc1cc(Nc2nc3ccccc3[nH]c2=O)n(-c2ccccc2)n1 | inactive: > 57 µM
CC(C)(C)C(=O)Nc1ccc(-c2cn3ccsc3n2)cc1 | active: 1.57 µM
N=c1n(CCN2CCOCC2)c2ccccc2n1CC(=O)c1ccc(Cl)c(Cl)c1 | active: 3.12 µM
CCC(=O)N1CCN(c2ccccc2NC(=O)COc2cccc(C)c2)CC1 | inactive: > 57 µM
Cc1ccc(S(=O)(=O)N2CCN(C(=O)CN3CCOCC3)C2c2ccccc2)cc1 (stereo not drawn) | inactive: > 57 µM
N#C/C(=C(/O)COC(=O)c1ccc2c(c1)OCCO2)c1nc2ccccc2[nH]1 | inactive: > 57 µM
Cc1csc(Sc2nc3c(c(=O)[nH]c(=O)n3C)n2CCCc2ccccc2)n1 | inactive: > 57 µM
O=C(Nc1ccc(F)cc1)N(CCCN1CCOCC1)Cc1cc2cc3c(cc2[nH]c1=O)OCO3 | inconclusive [decreasing]
O=C(c1c(Cl)cccc1Cl)N1CCCCCC1 | inconclusive [increasing]
CCN(C(=O)CSc1ncn[nH]1)c1cccc2ccccc12 | inconclusive [increasing]
O=C(Nc1ccc2nc(-c3cccs3)[nH]c2c1)c1ccco1 | active: 9.46 µM
Cc1ccc(C)c(S(=O)(=O)Nc2ccc3scnc3c2)c1 | inconclusive [increasing]
O=c1c2ccccc2cnn1-c1nc2ccccc2s1 | active: 0.163 µM
Clc1ccc(-n2ncc3c(NCc4ccccn4)ncnc32)cc1 | inconclusive [decreasing]
COc1ccccc1-c1cc(C(F)(F)F)nc(NCc2ccco2)n1 | inactive: > 57 µM
Cc1ccc2nc3sc(C(=O)N4CCOCC4)c(N)c3cc2c1 | active: 1.84 µM
Cc1c(O)ccc2c3c(c(=O)oc12)CCCC3 | inconclusive [decreasing]
O=C1CCCCCN1CSc1nc2ccccc2s1 | inconclusive [increasing]
O=C(Nc1ccccc1-c1nnn(CC(=O)N2CCCc3ccccc32)n1)c1ccco1 | inconclusive [increasing]
COc1ccc2cc3cc(C(=O)NCCN4CCN(c5ccccc5F)CC4)oc3nc2c1 | inconclusive [decreasing]
c1ccc(-c2cn3c4c(sc3n2)CCCC4)cc1 | active: 0.326 µM
Cc1ccc(S(=O)(=O)Nc2ccc(NC(=O)CN3CCCCC3)cc2)cc1 | inconclusive [increasing]
Cc1ccn2cc(C(=O)Nc3ccc4c(c3)OCCO4)nc2c1 | active: 7 µM
COc1ccc(OC)c(C2=C[N+](=O)C(C)(C)C(C)(C)N2[O-])c1 | inactive: > 57 µM
Cc1nnc(SCc2nnc(-c3ccc(Cl)cc3)o2)n1-c1ccccc1 | active: 7.53 µM
Cc1csc(NC(=O)c2cc3c(s2)CCC3)n1 | inconclusive [decreasing]
